# In PubChem BioAssay AID761 (NMMLSC, 2007):
# The campaign covered roughly 190,000 compounds. About 400 (0.21%) were called active. Inconclusive results, whose numbers are uncertain, are shown with a selection of clear calls.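 How the source made its calls: active means percent activity GTP binding at least 20 points away from the 100% baseline, either down as inhibitor or up as activator; inconclusive means compound flagged as likely green fluorescent from well-wide comparison; inactive means the rest.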
# Biological target: Cell division control protein 42 homolog (Homo sapiens) (UniProt P60953)
# Sequence of UniProt P60953 (P60953 whole entry, looked up): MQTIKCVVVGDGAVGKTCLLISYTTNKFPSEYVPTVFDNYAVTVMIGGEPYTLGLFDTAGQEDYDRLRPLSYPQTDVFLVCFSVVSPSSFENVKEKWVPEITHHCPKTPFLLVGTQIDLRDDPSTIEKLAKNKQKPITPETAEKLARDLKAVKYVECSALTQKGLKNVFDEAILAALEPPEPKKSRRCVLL
# Experiment: wildtype Cdc42 fluorescent GTP binding changes, either direction – biochemical, multiplex bead flow cytometry, Bodipy-GTP, primary screen (AID 761);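 further: median bead fluorescence of bound Bodipy-FL-GTP at 100 nM; 0% = excess unlabeled GTP control and 100% = no compound control; below 100% means less GTP binding so inhibitor and above means activator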
# Conditions: GST-Cdc42 beads, at 10 µM, actives lie on both sides
row,SMILES,percent activity (GTP binding)
1,O=C(NNC(=O)C1CCN(S(=O)(=O)c2cccc(C(F)(F)F)c2)CC1)C1CC1,inconclusive: 95%
2,Cc1ccc(-c2cc(C(=O)Nc3nn[nH]n3)c3ccccc3n2)c(C)c1,inconclusive: 95%
3,Cc1cc(C)c(-c2cc(NC(=O)CSc3nncn3C)n(-c3ccccc3)n2)cc1C,inconclusive: 103%
4,COc1cccc(-n2c(SCC(=O)NCCC3=CCCCC3)nc3n[nH]c(C)c3c2=N)c1,active: 75%
5,c1ccc(CSc2ccc(-c3cccnc3)nn2)cc1,inactive: 101%
6,CCCCCCn1c(-c2cccs2)n[nH]c1=S,inconclusive: 84%
7,Cc1ccc(NS(=O)(=O)c2cc(C(=O)Nc3cccc(N(C)S(C)(=O)=O)c3)ccc2C)c(C)c1,inconclusive: 100%
8,Cc1ccc(CSc2nc3[nH]ncc3c(=O)[nH]2)cc1,active: 76%
9,Cc1ccc(-n2ncc3c(SCc4cccc(C)c4)ncnc32)cc1,inconclusive: 97%
10,O=C(NC(=S)Nn1cnc2c(cnn2-c2ccccc2)c1=O)c1ccc(Oc2ccccc2)cc1,inconclusive: 95%
11,CC(C)N(C(=O)CSc1nnnn1-c1ccc2c(c1)OCO2)C(C)C,inactive: 100%
12,CCCCN1C(=O)C2C(c3ccc(OC)cc3O)NC(CC(C)C)(C(=O)O)C2C1=O (configuration not stated),inconclusive: 102%
13,Cc1cc(Br)ccc1OCCCCN1CCCCC1,inactive: 94%
14,CCOc1ccc(-c2ccc(SCC(=O)NCC3CCCO3)nn2)cc1 (configuration not stated),inconclusive: 94%
15,N#C/C(=C\Nc1ccccc1O)c1nc2ccccc2o1,inconclusive: 100%
16,O=C(CCC1CCCN(C(=O)c2ccoc2)C1)NCc1ccccc1F (configuration not stated),inactive: 96%
17,CN1CCN(CCCNC(=O)c2cn(C3CCCCC3)c(=O)c3c2c2ccccc2n3C)CC1,inconclusive: 105%
18,O=c1cnnc(Nc2cccc(F)c2)[nH]1,inconclusive: 102%
19,COc1cccc(/C=N/Nc2nn3cnnc3c3ccccc23)c1,inconclusive: 60%
20,Cc1ccccc1C(=O)O/N=C(\c1ccccc1)c1ccccn1,inconclusive: 106%
21,CN1C(=O)/C(=C\c2cc(Br)cs2)c2ccccc21,inconclusive: 91%
22,O=C(NCc1ccccc1)C1=C[C@@H](c2ccc(C(F)(F)F)cc2)C[C@@H](OCc2ccc(CO)cc2)O1,inconclusive: 94%
23,O=C(N/C(=C/c1ccco1)C(=O)N1CCOCC1)c1cccs1,inconclusive: 94%

row,SMILES,percent activity (GTP binding)
1,CCc1c(C)nc(Nc2nc(C)c3cc(OC)ccc3n2)[nH]c1=O,inconclusive: 91%
2,CCOC(=O)C1(CC2CCCCO2)CCN(S(=O)(=O)c2cccc(F)c2)CC1 (configuration not stated),inactive: 97%
3,CCCc1nc2sc3c(=O)n(N)cnc3c2c2c1CCCC2,inconclusive: 100%
4,CCS(=O)(=O)N1N=C(c2cccc(NS(C)(=O)=O)c2)CC1c1ccc(C)cc1 (configuration not stated),inconclusive: 118%
5,Cc1ccc(NC(=O)C2=C(c3ccccc3)S(=O)(=O)CCS2(=O)=O)cc1,active: 78%
6,COc1ccc(C2C(C(=O)Nc3ccc(OC)c(OC)c3)c3ccccc3C(=O)N2C)cc1 (configuration not stated),inactive: 101%
7,COc1ccc(N(CC(=O)Nc2ccccc2C(N)=O)S(=O)(=O)c2ccc(C)c([N+](=O)[O-])c2)cc1,inactive: 90%
8,COC(=O)c1nnn(CC(=O)Nc2ccc(C)c(F)c2)c1C(=O)OC,inconclusive: 94%
9,CCOc1cccc(-c2nn3c(-c4ccco4)nnc3s2)c1,inactive: 80%
10,O=Nc1c(O)n(Cc2ccc(Cl)cc2Cl)c2ccccc12,inconclusive: 86%
11,CCN(CC)S(=O)(=O)c1ccc(C(=O)NC(=S)N(CCC#N)Cc2cccnc2)cc1,inconclusive: 94%
12,O=C(c1ccc(-c2nnc(Nc3ccccc3)c3ccccc23)cc1)N1C[C@H]2C[C@H](C1)c1cccc(=O)n1C2,inactive: 103%
13,CCCCCCCC(=O)NN1CCOCC1,inconclusive: 99%
14,CCN(CC)S(=O)(=O)c1ccc(-c2nnc(SC)o2)cc1,inconclusive: 106%
15,COC(=O)C1SCC2C(=O)N(Cc3ccccc3)CC(=O)N21 (configuration not stated),inactive: 97%
16,COc1ccc(CCNC(=O)CSc2nnc(-c3cccc(F)c3)o2)cc1OC,inconclusive: 109%
17,O=[N+]([O-])c1cccc(-c2csc(N/N=C/c3cccc(O)c3)n2)c1,inactive: 98%
18,CCNC(=O)COc1cc(C)c(Br)c(C)c1,inactive: 105%
19,O=C(Cn1cnc([N+](=O)[O-])n1)N/N=C/c1cc(Cl)ccc1O,inconclusive: 88%
20,C/C(=N\NC(=O)CC1N=C(Cc2ccccc2)NNC1=O)c1ccc(Cl)cc1Cl (configuration not stated),inconclusive: 150%
21,O=C(Nc1nnc(-c2cccs2)o1)c1ccc(S(=O)(=O)N2CCOCC2)cc1,inconclusive: 90%
22,O=c1[nH]c(SCc2cccc(F)c2)nc2c1CCCC2,inactive: 96%
23,COc1ccccc1OCC(O)Cn1c(=N)n(CCN2CCCCC2)c2ccccc21 (configuration not stated),inconclusive: 96%

row,SMILES,percent activity (GTP binding)
1,O=C(O)c1cccc(Nc2ncnc3c2cnn3-c2ccccc2)c1,inconclusive: 95%
2,COc1ccc(S(=O)(=O)Nc2ccccc2C(=O)NCc2ccco2)cc1Br,inactive: 100%
3,Cc1cccc(Nc2nc3c(S(=O)(=O)c4ccccc4)nnn3c3ccccc23)c1,inconclusive: 103%
4,CCS(=O)(=O)N1N=C(c2cccc(NS(C)(=O)=O)c2)CC1c1ccccc1 (configuration not stated),inconclusive: 108%
5,Cc1nc(NC(=O)/C=C/c2ccc(Cl)cc2Cl)sc1C(=O)N(C)C,inconclusive: 83%
6,CCN(CC)c1ccc2c(c1)oc(=O)c1c(Cl)cc(=O)oc12,inactive: 88%
7,O=C(NCCN1CCOCC1)c1ccc(=O)n(Cc2ccc(Cl)cc2)c1,inactive: 96%
8,COc1ccc(S(=O)(=O)N2CCN(CC(=O)Nc3cc(C(F)(F)F)ccc3Cl)CC2)cc1,inconclusive: 41%
9,Cc1cc(NC(=O)c2ccccc2)ncc1NC(=O)c1ccco1,inconclusive: 106%
10,Cc1ccnc(Nc2nc(-c3c(C)nc4sccn34)cs2)c1,inconclusive: 76%
11,CC(=O)NCCCNc1ccc([N+](=O)[O-])cc1,inconclusive: 103%
12,CCCC1CC(C)(C(=O)Cn2[nH]c(=O)ccc2=O)OC1=O (configuration not stated),inconclusive: 103%
13,Cc1cc(N=NC(=O)c2ccccc2O)c2ccccc2c1O,active: 76%
14,CCC(CC)C(=O)c1c[nH]c(C(=O)NCc2ccccn2)c1,inactive: 99%
15,S=C(NCCc1ccccn1)Nc1ccccc1Cl,inactive: 99%
16,O=C(c1cc(S(=O)(=O)N2CCCCC2)c(Cl)cc1N1CCOCC1)N1CCOCC1,inconclusive: 112%
17,Cc1ccc2c(c1)N(CC(=O)NC1CCC(C)CC1)C(=O)CO2 (configuration not stated),inconclusive: 102%
18,Cn1c(SCCOc2ccccc2F)nc2ccccc2c1=O,inconclusive: 72%
19,COc1ccc(C(=O)Oc2coc(CSc3nnc(NC(=O)c4cccs4)s3)cc2=O)cc1,inconclusive: 94%
20,COc1cccc(N2CCN(Cc3nc(N)nc(N4CCCc5ccccc54)n3)CC2)c1,inconclusive: 88%
21,CNC(=O)NC(=O)CSc1nc(-c2cccs2)c(C#N)c(=O)[nH]1,inconclusive: 88%
22,Cc1cccc(C(=O)NC(=S)NNC(=O)COc2c(C)cccc2C)c1,inconclusive: 90%
23,CCOc1ccccc1N(CC(=O)N/N=C(\C)c1cccc(Br)c1)S(C)(=O)=O,inconclusive: 94%

row,SMILES,percent activity (GTP binding)
1,COc1ccc2c(c1)c1nnc(SCC(=O)N3CCCCC3C)nc1n2C (configuration not stated),inconclusive: 87%
2,Cc1nc2c(ccc3c([N+](=O)[O-])cccc32)c(C)c1C,inactive: 100%
3,CSc1nsc(/C=C/Nc2ccc(C)cc2)c1C#N,inactive: 105%
4,NC(=O)c1sc2nc3c(c(-c4ccco4)c2c1N)CCC3,inconclusive: 90%
5,c1csc(CNCc2ccncc2)c1,inconclusive: 98%
6,O=C(O)c1ccc2nc3c(nc2c1)-c1ccccc1C3=O,inconclusive: 80%
7,CCOC(=O)C1CCN(C(=O)Nc2ccc(Cl)cc2)CC1,inconclusive: 108%
8,O=C(N/N=C/c1ccco1)c1cccc(N2Cc3ccccc3C2)c1,inconclusive: 81%
9,COc1ccc(C(=O)CSc2ncn[nH]2)cc1OC,inconclusive: 108%
10,COc1ccc(S(=O)(=O)N2CCCCC2)cc1NC(=O)c1ccc([N+](=O)[O-])o1,inactive: 82%
11,COc1cc(C(=O)N/N=C/c2ccc(OC)c(CN3CCN(c4ccc(F)cc4)CC3)c2)ccc1O,inconclusive: 77%
12,S=c1[nH]nc(-c2cccnc2)n1/N=C/C(Cl)=C\c1ccccc1,inconclusive: 92%
13,CCCC(=O)Nc1nc2c(c(=O)[nH]1)CCCC2,inconclusive: 103%
14,N#CCCN(/N=C/c1cccnc1)C1=NS(=O)(=O)c2ccccc21,inactive: 89%
15,O=C(c1cccc(S(=O)(=O)N2CCOCC2)c1)N1CCCCCC1,inconclusive: 104%
16,CN(C)CCCn1c(SCC(=O)N2c3ccccc3Sc3ccccc32)nc2ccccc2c1=O,inactive: 100%
17,COc1cccc2c(SCC(=O)N/N=C/c3ccc(O)c(O)c3)cc(C)nc12,active: 71%
18,CC1=NC(=O)C(N=Nc2ccccc2)N1c1ccccc1 (configuration not stated),inactive: 97%
19,CCCCN1CNC(=S)N(c2cc(C)ccc2C)C1,inconclusive: 107%
20,O=c1[nH]c(=O)c2nnc(N/N=C\c3ccc(O)cc3)nc2[nH]1,active: 60%
21,COc1cc2c(cc1NCc1ccccn1)oc1ccccc12,inactive: 105%
22,C/C(CC(=O)Nc1cccc(C(F)(F)F)c1)=N\NC(=O)Cc1ccccc1,inconclusive: 96%
23,Cc1cc(C)c(S(=O)(=O)N2CCCOC2CNC(=O)C(=O)NCc2ccncc2)c(C)c1 (configuration not stated),inactive: 104%
